Measurements as given in the supplement of paper PMC12297408.
Structures can show the parent of a compound that is named as a salt. Hit rate of the full screen: of about 1,300 compounds, about 40 (3%) showed activity. Some of the results follow.

Tested on: Plasmodium falciparum NF54/iGP1_RE9H ulg8 stage V gametocytes
Test: gametocyte viability (luciferase signal relative to DMSO control) (% of DMSO control); higher = less gametocytocidal activity, active = 50 or less
Details: exposure time: 72 h
How it was run: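 NF54/iGP1_RE9Hulg8 stage V gametocytes (day 12; ~2.5% gametocytemia, 3% hematocrit) in medium with 0.5% Albumax II were added to 96-well plates of nanolitre-spotted compounds (10 mM DMSO stocks), giving 10 µM or 1 µM, one well each. Plates were incubated 72 h at 37 °C. Then 90 µl was mixed with 10 µl D-luciferin (30 mg/ml) and luminescence was read on an IVIS Lumina II. Viability is relative to the mean of plate DMSO vehicle controls.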

SMILES	gametocyte viability (concentration: 1 µM)	gametocyte viability (concentration: 10 µM)
CC(C)(N)Cc1ccccc1 [Phentermine hydrochloride]	inactive: 91.4	inactive: 85.5
CCNCC(O)c1cccc(O)c1 (configuration not stated) [Etilefrine hydrochloride]	inactive: 87.9	inactive: 90.2
COc1ccc(C(CN(C)C)C2(O)CCCCC2)cc1 (configuration not stated) [Venlafaxine]	inactive: 78.5	inactive: 81.8
CNC(=O)Oc1ccc2c(c1)[C@]1(C)CCN(C)[C@@H]1N2C [Eserine sulfate, physostigmine sulfate]	inactive: 83.4	inactive: 79
CN(C)C(=O)Oc1cccc([N+](C)(C)C)c1 [Neostigmine bromide]	inactive: 83.4	inactive: 88.4
CNC(C)(C)Cc1ccccc1 [Mephentermine hemisulfate]	inactive: 87.5	inactive: 83.5
C[C@]12CCC(=O)C(O)=C1CC[C@@H]1[C@@H]2CC[C@]2(C)C(=O)CC[C@@H]12 [Formestane]	inactive: 81.3	inactive: 84.1
CCC1=C[C@H]2CN3CCc4c([nH]c5ccccc45)[C@](C(=O)OC)(C2)[C@H]13 [Catharanthine]	inactive: 90.9	inactive: 98.3
CC(C)C[C@H]1C(=O)N2CCC[C@H]2[C@]2(O)O[C@](NC(=O)[C@@H]3C=C4c5cccc6[nH]c(Br)c(c56)C[C@H]4N(C)C3)(C(C)C)C(=O)N12 [Bromocryptine mesylate]	inactive: 84.2	inactive: 66.9
CN1[C@@H]2CC[C@H]1C[C@@H](OC(=O)C(CO)c1ccccc1)C2 (some centres not stated) [Atropine sulfate monohydrate]	inactive: 87.4	inactive: 91
NCCCNCCSP(=O)(O)O [Amifostine]	inactive: 86.2	inactive: 88
C#CCN(C)[C@H](C)Cc1ccccc1 [Selegiline hydrochloride]	inactive: 105	inactive: 98.5
CN(C)C(=O)Oc1ccc[n+](C)c1 [Pyridostigmine iodid]	inactive: 88.9	inactive: 90.3
C[C@@H]1O[C@@H](O[C@@H]2C=C3CC[C@@H]4[C@H](CC[C@]5(C)[C@@H](c6ccc(=O)oc6)CC[C@]45O)[C@@]3(C)CC2)[C@H](O)[C@H](O)[C@H]1O [Proscillaridin A]	inactive: 81.2	inactive: 76.2
C[C@]12CC[C@@H](O)C[C@H]1CC[C@@H]1[C@@H]2CC[C@]2(C)C(=O)CC[C@@H]12 [3-alpha-Hydroxy-5-beta-androstan-17-one]	inactive: 86	inactive: 76.8
O=c1[nH]c2ccccc2n1C1CCN(CCCC(c2ccc(F)cc2)c2ccc(F)cc2)CC1 [Pimozide]	inactive: 83.3	inactive: 82.9
C[N+]1(C)CCCC(OC(=O)C(O)(c2ccccc2)c2ccccc2)C1 (configuration not stated) [Mepenzolate bromide]	inactive: 96.4	inactive: 93.7
OC(c1ccccc1)(c1ccccc1)C1CCNCC1 [Azacyclonol]	inactive: 89.1	inactive: 92.8

SMILES	gametocyte viability (concentration: 1 µM)	gametocyte viability (concentration: 10 µM)
NC(=O)OCCCc1ccccc1 [Phenprobamate]	inactive: 83.5	inactive: 64.5
CCC1(C)CC(=O)NC(=O)C1 [Bemegride]	inactive: 90.9	inactive: 81.7
CCCC(C)(COC(N)=O)COC(=O)NC(C)C (configuration not stated) [Carisoprodol]	inactive: 78.8	inactive: 77.9
COc1ccc(OC)c(C(O)C(C)N)c1 (configuration not stated) [Methoxamine hydrochloride]	inactive: 87.2	inactive: 88.9
CCC(=O)O[C@H]1CC[C@H]2[C@@H]3CCC4=CC(=O)CC[C@]4(C)[C@H]3CC[C@]12C [Testosterone propionate]	inactive: 80.6	inactive: 78.8
C=CCC1(CC(C)C)C(=O)NC(=O)NC1=O [Butalbital]	inactive: 88.8	inactive: 86.7
O=C(CCCN1CCC(n2c(=O)[nH]c3ccccc32)CC1)c1ccc(F)cc1 [Benperidol]	inactive: 80.1	inactive: 87.1
C[C@@H]1CN([C@H]2CC[C@](C#N)(c3ccc(F)cc3)CC2)CC[C@]1(C(=O)O)c1ccccc1 [Levocabastine hydrochloride]	inactive: 86.5	inactive: 88.3
C[C@]12COC(=O)C[C@@H]1CC[C@@H]1[C@@H]2CC[C@@]2(C)[C@H]1CC[C@]2(C)O [Oxandrolone]	inactive: 81.4	inactive: 78.9
O=P1(N(CCCl)CCCl)NCCCO1 (configuration not stated) [Cyclophosphamide]	inactive: 80.6	inactive: 81.9
CN1C(=O)CCS(=O)(=O)C1c1ccc(Cl)cc1 (configuration not stated) [Chlormezanone]	inactive: 83.3	inactive: 91.3
CN(C)[C@@H]1C(=O)C(C(N)=O)=C(O)[C@@]2(O)C(=O)C3=C(O)c4c(O)cccc4[C@@](C)(O)[C@H]3[C@H](O)[C@@H]12 [Oxytetracycline dihydrate]	inactive: 82.8	inactive: 89.4
C[C@]12C/C(=C/O)C(=O)C[C@@H]1CC[C@@H]1[C@@H]2CC[C@@]2(C)[C@H]1CC[C@]2(C)O [Oxymetholone]	inactive: 90.6	inactive: 90.5
CC(=O)[C@H]1CC[C@H]2[C@@H]3CC[C@H]4C[C@H](O)CC[C@]4(C)[C@H]3C(=O)C[C@]12C [Alfaxalone]	inactive: 85.4	inactive: 79.8
C=C1C[C@@H]2[C@H](CC[C@]3(C)C(=O)CC[C@@H]23)[C@@]2(C)C=CC(=O)C=C12 [Exemestane]	inactive: 83.4	inactive: 74.9
Oc1ccc2c3c1O[C@H]1[C@@H](O)CC[C@@]4(O)[C@@H](C2)N(CC2CCC2)CC[C@]314 [Nalbuphine hydrochloride]	inactive: 98.9	inactive: 111
CC(=O)O[C@H]1CC[C@@]2(C)C(=CC[C@@H]3[C@@H]2CC[C@]2(C)C(=O)CC[C@@H]32)C1 [Dehydroisoandosterone 3-acetate]	inactive: 90.9	inactive: 90
O=C(NCNC(=O)NC1C(=O)NC(=O)N1CO)NC1C(=O)NC(=O)N1CO (configuration not stated) [Imidurea]	inactive: 84.1	inactive: 88.9
